Measurements taken from PubChem BioAssay AID588855 (National Center for Advancing Translational Sciences (NCATS), 2011).
Where “and” joins values, the source holds several entries; their conditions need not be identical. Identical values can stand only once. About 5,000 (1.2%) of roughly 410,000 compounds were called active. The shares of active, inactive and inconclusive entries below differ from those in the screen. The call rests on the fitted dose curve; in most records, active means well fitted inhibition curve with a large enough effect; inconclusive means small, poorly fitted or top-dose-only effect; inactive means no such curve, though single readings can be large or run the other way. Where the call is inconclusive, the potency comes from a doubtful curve fit.

assay: qHTS for Inhibitors of TGF-b; conditions: HepG2 CAGA-GFP TGF-b/SMAD3 reporter, GFP fluorescence, 18 h, TGF-beta stimulated, 500 pg/mL final; series mostly up to 46.1 µM; further: nearly all actives have a fitted effect of over 65% in size
Method in brief: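 HEPG2 CAGA-GFP reporter cells (1000/well, DMEM with 1% FBS) received compounds, then recombinant TGF-beta at 500 pg/mL final for 18 hours at 37 degrees C. Per-cell GFP summed per well was normalised to unstimulated and stimulated DMSO controls before curve fitting.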
Potency means the concentration at half of the fitted maximal effect; tags describe the fitted curve by direction and shape.

Row | SMILES | Potency
1 | Cc1cccc(NC(=O)c2ccc3c(O)c(S(=O)(=O)c4ccccc4)c(=O)[nH]c3c2)c1C | inconclusive: 17.8 µM [inhibitor, single point]
2 | Cc1ccccc1-c1nc(CS(=O)(=O)CC(=O)NCCc2ccccc2)c(C)o1 | active: 14.1 µM
3 | O=C(CN(Cc1ccc(Cl)cc1)S(=O)(=O)c1ccccc1)NCC1CCCO1 (stereo not given) | inactive
4 | CC(C)NCC(O)(c1ccc(Cl)cc1)c1ccc(Cl)cc1 | inconclusive: 35.5 µM [inhibitor, single point]
5 | COCCn1c(SCC(=O)N2CCCCC2)nc2c([nH]c3ccccc32)c1=O | inactive
6 | Nc1nnc(SCC(=O)Nc2ccc(N3CCOCC3)cc2)s1 | inactive
7 | O=C(Nc1cc(S(=O)(=O)N2CCCC2)ccc1Cl)c1ccncc1 | inactive
8 | CC(NCC(O)COC1CCC(C(C)(C)C)CC1)c1ccccc1 (stereo not given) | inconclusive: 35.5 µM [inhibitor, single point]
9 | COc1ccc(S(=O)(=O)N2CCCC(C(=O)NCc3ccncc3)C2)cc1Cl (stereo not given) | inactive
10 | COc1ccc(Br)cc1CNC(C)c1ccccc1 (stereo not given) | inactive
11 | C=CCN1C(c2ccccc2)=CS/C1=C(\C#N)c1nnc2n1CCCCC2 | inactive
12 | Cc1ccc(OCc2nc(-c3ccc(C(=O)N4CCN(c5cccc(C(F)(F)F)c5)CC4)cc3)oc2C)cc1 | inactive
13 | CCC1(C)Cc2c(sc3nnn(CC(=O)Nc4ccc(Cl)cc4)c(=O)c23)CO1 (stereo not given) | inconclusive: 31.6 µM [inhibitor, single point]
14 | O=C(Nc1ccc(S(=O)(=O)NCc2ccccc2)cc1)c1ccccc1[N+](=O)[O-] | inconclusive: 12.6 µM [inhibitor, partial curve]
15 | CC(=O)N(C(C)=O)c1ncnc2c1c(-c1ccc(Cl)cc1)nn2C(C)(C)C | inconclusive: 35.5 µM [inhibitor, partial curve, poor fit]
16 | COc1cc(NC(=O)c2cccs2)c(C(=O)OCC(=O)c2cc(C)n(-c3ccccc3)c2C)cc1OC | inconclusive: 6.31 µM [inhibitor, single point]
17 | O=C(COc1ccccc1)N=C1SC2CS(=O)(=O)CC2N1c1ccccc1F (stereo not given) | inactive
18 | CC(=O)Nc1cccc(C(=O)OC(C)C(=O)Nc2ccc(S(=O)(=O)N3CCCC3)cc2)c1 (stereo not given) | inconclusive: 15.8 µM [inhibitor, single point]
19 | Cc1ccc(C2CCN(C(=O)Nc3ccc(Cl)cc3)C2)cc1 (stereo not given) | inconclusive: 0.794 µM [inhibitor, full curve, poor fit]
20 | CCn1c(CNC(C)=O)nnc1SCC(=O)c1ccc(Br)cc1 | inactive
21 | COc1ccccc1C(=O)NCCC(=O)N1CCN(c2ccccc2Cl)CC1 | inactive
22 | CCN1C(=O)[C@H]2[C@@H](c3ccc(C)cc3)N3C(=O)N(c4ccc(OC)cc4)C(=O)[C@@]3(CC)[C@H]2C1=O | inactive
23 | O=C(Oc1ccc(Br)cc1C(=O)/C=C/c1ccccc1F)c1ccco1 | active: 15.8 µM
24 | COC(=O)c1ccc2c(=O)[nH]c(CCl)nc2c1 | inactive

Row | SMILES | Potency
25 | O=C(O)C(c1ccccc1)N1C(=O)/C(=C\c2ccc(-c3cccc(Cl)c3)o2)SC1=S (stereo not given) | inconclusive: 15.8 µM [inhibitor, partial curve, poor fit]
26 | O=C(O)CCCC(=O)Nc1ccccc1C(=O)O | inconclusive: 35.5 µM [inhibitor, single point]
27 | CCOc1cc(CNC2CCCC2)cc(Cl)c1OCc1ccc(F)cc1 | inconclusive: 35.5 µM [inhibitor, single point]
28 | Cc1ccc(C2=NS(=O)(=O)N(C)C(C(=O)NC3CCCCC3)=C2)cc1 | inactive
29 | CCOc1ccc(N(C)S(=O)(=O)c2c(C(=O)N3CCC(C)CC3)c(C)n(C)c2C)cc1 | inactive
30 | COc1ccccc1/C=C/C=N/N1CCN(Cc2ccc(Cl)cc2)CC1 | inactive
31 | CCn1ccc2cc(S(=O)(=O)N3CCC(C(=O)NCc4cccc(Cl)c4)CC3)ccc21 | inconclusive: 11.2 µM [inhibitor, partial curve]
32 | CCCCN(Cc1ccccc1)c1ncnc2nc[nH]c12 | inconclusive: 25.1 µM [inhibitor, single point]
33 | C/C(=N\NC(=O)c1csc2ccccc12)c1ccc(O)cc1 | inconclusive: 3.98 µM [inhibitor, single point]
34 | Cc1ccc(CNC(=O)c2cc(-c3ccccc3)nn2CC2CC(c3cccnc3)=NO2)cc1 (stereo not given) | inconclusive: 25.1 µM [inhibitor, single point]
35 | CC1CCN(S(=O)(=O)c2ccc3c(c2)CC(C)N3C(=O)C2CCC2)CC1 (stereo not given) | inconclusive: 35.5 µM [inhibitor, single point]
36 | Cc1cccc(NC(=S)NNC(=O)c2csc(C)c2)c1 | inconclusive: 35.5 µM [inhibitor, single point]
37 | CC1(OC(=O)CCc2ccccc2)C(=O)C=C2C=C(c3ccc(C#N)cc3)N(Cc3ccco3)C=C2C1=O (stereo not given) | inconclusive: 7.94 µM [inhibitor, partial curve, poor fit]
38 | Cc1ccc(O)c(C(=O)CC(=O)c2ccc(C(C)(C)C)cc2)c1 | inactive
39 | CCS(=O)(=O)N1Cc2ccccc2CC1C(=O)N(C)CC(=O)Nc1ccc(OC)cc1 (stereo not given) | inconclusive: 1.41 µM [inhibitor, partial curve, poor fit]
40 | CCOC(=O)CN1C(C(=O)c2ccccc2)=C(OC(=O)C(C)(C)C)c2ccccc2S1(=O)=O | inconclusive: 20 µM [inhibitor, partial curve, poor fit]
41 | CC(=O)Nc1cc(C(=O)NCc2ccc(C)cc2)ccc1S(=O)(=O)c1ccc(Cl)cc1 | inactive
42 | CCOc1ccc(CNc2ccc3c(c2)ncn3C(C)(C)C)cc1 | inconclusive: 8.91 µM [inhibitor, partial curve]
43 | Cc1ccc(NC(=S)N=Nc2c(O)n(C)c3ccc(S(=O)(=O)N4CCOCC4)cc23)cc1 | inconclusive: 0.708 µM [inhibitor, full curve]
44 | CCn1c(SCc2cccc(Br)c2)nnc1-c1nonc1NC(C)=O | inconclusive: 6.31 µM [inhibitor, full curve, poor fit]
45 | Cc1cccc(OCCCN2CCCCCC2)c1 | inactive
46 | CCc1ccc(S(=O)(=O)c2nnn3c2nc(Nc2ccc(C)c(Cl)c2)c2sccc23)cc1 | inactive
47 | Clc1ccc(Nc2ccc(-n3ccnc3)nn2)cc1Cl | inconclusive: 22.4 µM [inhibitor, single point]
48 | CC1(C)CC(=S)Nc2ccccc2S1 | inactive

Row | SMILES | Potency
49 | COCCCn1c(=N)c(C(=O)NCc2ccco2)cc2c(=O)n3cccc(C)c3nc21 | inactive
50 | Fc1ccc(CNc2ncccn2)cc1 | inactive
51 | Cc1cc(C)c(C)c(S(=O)(=O)N(C)CCc2ccccn2)c1C | inconclusive: 17.8 µM [inhibitor, single point]
52 | CCCCNC(=O)C(CC)(ONc1ccccc1C(F)(F)F)c1ccccc1 (stereo not given) | inconclusive: 3.55 µM [inhibitor, full curve, poor fit]
53 | CCOC(=O)CN1C(=O)CC(c2ccc([N+](=O)[O-])cc2)C1=O (stereo not given) | inactive
54 | Cc1ccc(OC(=O)c2ccncc2)c(C)c1 | inactive
55 | O=C(Cc1ccccc1)NNc1ccc2ccccc2c1 | inconclusive: 11.2 µM [inhibitor, single point]
56 | CC(=O)c1ccc(Cc2ccc(C(C)=O)s2)s1 | inactive
57 | CCN(c1ccccc1)S(=O)(=O)c1ccc(OC)c(NC(=O)C2CCC2)c1 | inconclusive: 14.1 µM [inhibitor, single point]
58 | CCC1=C2CC[C@H]3C(=O)N(c4ccccc4)C(=O)[C@H]3[C@H]2[C@@]2(C)C(=NCc3ccccc3)OC(=O)N2C1=O | inconclusive: 28.2 µM [inhibitor, single point]
59 | Cc1cc(C)c(S(=O)(=O)Nc2cnc3ccccc3c2)c(C)c1 | inconclusive: 12.6 µM [inhibitor, single point]
60 | O=C(COC(=O)c1cc(=O)[nH]c2ccccc12)NCc1ccc(Cl)cc1 | inactive
61 | COc1cc(/C=N/O)cc(Br)c1OCc1cccc(Cl)c1 | inconclusive: 35.5 µM [inhibitor, single point]
62 | CCOC(=O)c1cccc(NC(=O)CC2C(=O)N(c3ccc(Cl)cc3)C(=O)N2C2CCCC2)c1 (stereo not given) | inconclusive: 20 µM [inhibitor, single point]
63 | O=C(Cn1nnc(-c2ccccc2)c1COc1ccc2ccccc2c1)NCC1CC1 | inconclusive: 12.6 µM [inhibitor, single point]
64 | CCc1ccccc1NC(=O)Cn1c(=O)n(CCCCCC(=O)NCc2ccc(C)cc2)c(=O)c2sccc21 | inactive
65 | CCc1nnc(NC(=O)NCN2C(=O)C3C4C=CC(C4)C3C2=O)s1 (stereo not given) | inconclusive: 35.5 µM [inhibitor, single point]
66 | COc1ccccc1C1(O)CCN(CC(=O)Nc2nc(-c3ccccc3)cs2)CC1 | inconclusive: 22.4 µM [inhibitor, single point]
67 | CCC(Sc1nc2ccncc2[nH]1)C(=O)Nc1cc(Cl)ccc1C (stereo not given) | inconclusive: 17.8 µM [inhibitor, partial curve, poor fit] and inconclusive: 35.5 µM [inhibitor, single point]
68 | CCc1c(C)[nH]n(-c2nc(-c3ccccc3)cs2)c1=O | inconclusive: 35.5 µM [inhibitor, single point]
69 | CCC(=O)NC(=S)Nc1ccc(NC(=O)COc2ccccc2)cc1 | inconclusive: 3.55 µM [inhibitor, full curve, poor fit]
70 | CCN1C(=O)[C@H]2[C@@H](c3ccc(C(F)(F)F)cc3)N[C@]3(CCCN(Cc4cccn4C)C3=O)[C@H]2C1=O | inconclusive: 11.2 µM [inhibitor, partial curve, poor fit]
